# Reference: the supplement of paper PMC3334620
# The full ranking holds about 33,000 sequences; the median of “E-score (-0.5 to 0.5)” is about -0.032, and the highest 2% start at about 0.36. This is one part of the list.
# Target: T1, Sko1 (UniProt Q02100)
# T1 sequence: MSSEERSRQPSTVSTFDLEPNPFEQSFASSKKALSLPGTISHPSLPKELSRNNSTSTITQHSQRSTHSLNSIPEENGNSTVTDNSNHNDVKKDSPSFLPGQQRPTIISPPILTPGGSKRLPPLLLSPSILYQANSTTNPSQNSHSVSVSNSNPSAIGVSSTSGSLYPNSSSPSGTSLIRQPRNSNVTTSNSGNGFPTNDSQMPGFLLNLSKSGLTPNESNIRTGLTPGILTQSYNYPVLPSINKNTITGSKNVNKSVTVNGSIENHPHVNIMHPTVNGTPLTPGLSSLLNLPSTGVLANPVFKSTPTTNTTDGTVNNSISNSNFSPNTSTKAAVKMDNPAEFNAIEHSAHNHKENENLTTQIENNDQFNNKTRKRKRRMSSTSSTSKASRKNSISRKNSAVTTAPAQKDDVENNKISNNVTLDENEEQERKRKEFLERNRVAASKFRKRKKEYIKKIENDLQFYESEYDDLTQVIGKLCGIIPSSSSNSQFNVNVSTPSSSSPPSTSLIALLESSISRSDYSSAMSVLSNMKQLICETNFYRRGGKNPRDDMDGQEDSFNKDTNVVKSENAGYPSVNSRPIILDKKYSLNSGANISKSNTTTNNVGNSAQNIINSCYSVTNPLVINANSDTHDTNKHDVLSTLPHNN
# Test: PBM E-score (8-mer binding enrichment) (E-score (-0.5 to 0.5)); higher = stronger / more preferred TF binding; most listed sequences are background and not binding sites
# Settings: protein concentration: 200 nM; construct: GST-full length
# How it was run: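 Bound GST-tagged yeast transcription factors, applied at about 100-200 nM to double-stranded universal all-10-mer Agilent arrays, were detected with fluorescent anti-GST. Scans were normalised with masliner. A modified Wilcoxon-Mann-Whitney statistic, the E-score, was assigned to each ungapped eight-base word pooled with its reverse complement by the Universal PBM Analysis Suite.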
row,Sequence,PBM E-score
1,GACAATGC,0.0158
2,GAGATCCA,-0.146
3,ACGGTGCG,0.134
4,GTCAATTA,0.249
5,ACACGAAA,0.201
6,TAGTTATA,0.259
7,AGAGATTC,-0.0146
8,GGCAACAA,0.0429
9,AATTCCGA,-0.077
10,AGATCTGG,-0.231
11,AACAAGCG,0.163
12,TACCGAAA,-0.0334
13,TACACAGA,0.037
14,CCTTACAC,-0.0485
15,AAGAAGCT,0.198
16,ATGCTTAG,0.126
17,GCGTTGCC,-0.0432
18,CTTAGCGA,-0.028
19,AGCGCCTG,-0.237
20,GACCATTA,0.0674
21,ACTTACAC,0.114
22,CAATGTCG,0.275
23,AATGAGTC,0.0758
24,GGACGCCA,-0.0848
25,CATAGGGG,-0.149

row,Sequence,PBM E-score
1,GCCGACCA,-0.232
2,ACAAATGA,0.227
3,AGACTACT,0.0448
4,ATCCTAAC,0.0444
5,CGAGCCGC,0.00566
6,AGGTAAGG,-0.0698
7,TGAGCTAA,0.229
8,AGAGACAA,-0.0923
9,GATAGGCA,-0.0497
10,CAAACTCC,0.049
11,GGAGCTAA,-0.114
12,AACATGGT,-0.183
13,ATGGTCAG,0.0509
14,GAACTGGA,-0.0624
15,TATGAAAA,0.0631
16,CGCGTGAA,0.152
17,AGGATTAA,-0.0239
18,GACTTGAC,0.0909
19,AATGAAGC,-0.0775
20,CCCTGTCC,-0.395
21,CCGTCTTA,0.00816
22,AATCGCTG,-0.0909
23,CGAATGTA,0.0563
24,GCGGCAAA,-0.177
25,AATCCCCC,-0.18

row,Sequence,PBM E-score
1,ATGTAATC,0.313
2,CGCCATTA,0.117
3,CTGCAAAC,-0.114
4,CAGCAAGA,0.0103
5,CTCCTAAA,-0.0427
6,CAATATTA,0.264
7,TAGGAAAA,0.0436
8,ACCGCTTA,-0.00218
9,AAGCTCGG,-0.169
10,AGAGATTG,0.0375
11,AGAGCTGA,-0.0834
12,ATTGTTCC,0.0873
13,AGGCGGAG,-0.291
14,GCGCAGCC,-0.339
15,AGTCGGCA,-0.283
16,ATATAGAT,0.212
17,GTCGTGTA,0.169
18,AACCCACG,0.197
19,CACCCCAG,-0.051
20,CCGTCAAC,-0.0749
21,AATCCACA,-0.0329
22,AGGTTGGG,-0.0653
23,TCACCCCA,0.00788
24,AATATCCA,0.0476
25,AGTATGAC,0.376

row,Sequence,PBM E-score
1,GAGTGGAC,-0.0211
2,GCGATGAC,0.374
3,AAAATGTG,0.062
4,CCGTGATA,-0.0242
5,AAACCAGG,-0.167
6,ACCCTCAC,-0.0312
7,GATTTCCA,-0.117
8,ATAGCTGA,0.00588
9,AAGCTAGA,0.0548
10,GGAAGATA,0.104
11,CGCACCTC,-0.192
12,CAGTTGCA,-0.0805
13,CATGTTAC,0.202
14,GTAGCAAA,0.135
15,CCATAGCC,-0.247
16,CAGCCCCG,-0.18
17,CCGGCCGA,-0.238
18,TAGCGTCA,0.398
19,ATCGGCAT,-0.0245
20,CACTCTTC,-0.19
21,GTTAATGA,0.297
22,CACGCAGG,0.173
23,CGACAGCC,-0.0783
24,AAGACATC,0.0317
25,ATCCTGGA,-0.0497

row,Sequence,PBM E-score
1,GGTCCATA,-0.211
2,ATGATTTC,0.163
3,GTGAAACA,0.207
4,CCCCCAGG,-0.245
5,CGTAAAAC,0.256
6,CGACATTA,0.255
7,GTAGCCTA,0.0742
8,GCATTGAA,0.081
9,GTAGCGAC,-0.02
10,GGCCTAGA,-0.134
11,AGGTAGTC,-0.143
12,AGCCAGAC,-0.148
13,ACTCTGAC,0.107
14,ACTCATCG,0.104
15,GACAGGAC,-0.0971
16,GGCCAGGA,-0.265
17,CGTGTCCC,0.0809
18,GCTAACGA,0.171
19,AACTTACA,0.0844
20,CATAAATG,-0.0208
21,CATCTTTC,0.0611
22,ACACCCAT,-0.101
23,GCGCTACA,0.0112
24,AAATGTCC,-0.148
25,AAATTCCC,-0.0767

row,Sequence,PBM E-score
1,AATGGCGT,0.387
2,GGGGGATA,-0.433
3,AAGGCACG,0.132
4,AAGTAAGA,-0.0186
5,AGACGGGG,-0.247
6,CTGAATAA,0.0914
7,TAATTATA,0.285
8,GGCGAAGA,-0.244
9,CCCCTACG,0.0246
10,CGCACTAC,0.164
11,CCAGCTTC,-0.149
12,ACCACTTG,-0.137
13,CAAGGATA,-0.108
14,CACGGTAG,-0.109
15,GTCGTTAA,0.0709
16,CCCAAAAC,0.0905
17,AGCCCCTC,-0.0826
18,CACTAGTG,-0.143
19,CATTATGA,0.214
20,GACGGATA,0.0281
21,ATCGCTTA,0.0739
22,TGCACTAA,0.0994
23,CGGGGGAG,-0.296
24,AGCACATC,-0.058
25,AGATTCGG,-0.102

row,Sequence,PBM E-score
1,GAGTATGA,0.291
2,ACTATTGA,0.123
3,TCCGATAA,-0.216
4,AGTGGATA,-0.181
5,ACTTGAGC,-0.172
6,GATTTTAC,0.173
7,ACATGAGT,0.00372
8,CCTATATC,-0.0162
9,AATTCCTC,-0.0266
10,GTCGTGGA,-0.0552
11,CGAAATAG,0.0567
12,CTCGAAGC,-0.0451
13,AAGTAGAA,0.148
14,ACAAGACC,-0.304
15,ACCAGGAG,-0.281
16,CTCATAAG,-0.0156
17,TCTGCGCA,-0.00414
18,AGAGGTAC,-0.162
19,CATCCCCC,-0.395
20,CGTCCGAC,-0.0238
21,GGAACGAC,0.0688
22,GACGAAGC,0.0937
